# Data as given in the supplement of paper PMC8728848.
# The other results are listed elsewhere or left out.
# B1: Sebin2 (Coprinopsis cinerea), A8PE78 (protein)
# chain: MTTPFYAYCHNVQDDNTWRLGLVFANRSTADEWWRAISEATSSIPITKSITRVTPQYYTHDIRVWNMYNFFVDGNIKSISDKFRGRLFITLEYDRSGRGVSVFPPLHIVDHVSGNWYYIRSKTAPHLFWFYDETRNAIYASKEKRTRFKVSIRNPSPQTPKDAIMINSDDVVIHIKESLYVGVDSYLGHIIPTRAYRTFKFGELEGGAIAGIEVAENAEERCSSTFDGASLYFVGPDSSSPGEPWELV
# Key:
# Assay in all cases: glycan array binding signal (z-score within array); higher = stronger binding
# Details in all cases: glycan notation: IUPAC condensed, linker removed
# Gal3S4S(b1-4)GlcNAc = target: Gal3S4S(b1-4)GlcNAc
# Outline: (§1)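 Glycan array data came from 3228 arrays in the Consortium for Functional Glycomics database, and only arrays with an available protein sequence were kept. Glycan names were put into IUPAC-condensed notation, and columns mapping to the same glycan were averaged. The binding signal is a within-array Z-score, averaged across arrays of one protein sequence run at different concentrations or buffers and across linkers. A negative Z-score can be read as non-binding.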
# Gal3S6S(b1-4)GlcNAc = target: Gal3S6S(b1-4)GlcNAc
# Outline: as §1
# Gal3S6S(b1-4)GlcNAc6S = target: Gal3S6S(b1-4)GlcNAc6S
# Outline: as §1
# Gal4S(b1-4)GlcNAc = target: Gal4S(b1-4)GlcNAc
# Outline: as §1
# Gal4S6S(b1-4)GlcNAc = target: Gal4S6S(b1-4)GlcNAc
# Outline: as §1
# Gal6P(b1-4)GlcNAc = target: Gal6P(b1-4)GlcNAc
# Outline: as §1
# Gal6S(b1-3)GlcNAc = target: Gal6S(b1-3)GlcNAc
# Outline: as §1
# Gal6S(b1-3)GlcNAc6S = target: Gal6S(b1-3)GlcNAc6S
# Outline: as §1
# Gal6S(b1-4)Glc = target: Gal6S(b1-4)Glc
# Outline: as §1
# Gal6S(b1-4)Glc6S = target: Gal6S(b1-4)Glc6S
# Outline: as §1
# Gal6S(b1-4)GlcNAc = target: Gal6S(b1-4)GlcNAc
# Outline: as §1
# Gal6S(b1-4)GlcNAc6S = target: Gal6S(b1-4)GlcNAc6S
# Outline: as §1
# GalNAc(a1-3)Gal = target: GalNAc(a1-3)Gal
# Outline: as §1
# GalNAc(a1-3)GalNAc = target: GalNAc(a1-3)GalNAc
# Outline: as §1
# [1] = target: GalNAc(a1-3)GalNAc(b1-3)Gal(a1-4)Gal(b1-4)Glc
# Outline: as §1
# [2] = target: GalNAc(a1-3)GalNAc(b1-3)Gal(a1-4)Gal(b1-4)GlcNAc
# Outline: as §1
# GalNAc(b1-3)Gal = target: GalNAc(b1-3)Gal
# Outline: as §1
# [3] = target: GalNAc(b1-3)Gal(a1-4)Gal(b1-4)GlcNAc
# Outline: as §1
# [4] = target: GalNAc(b1-3)Gal(a1-4)Gal(b1-4)GlcNAc(b1-3)Gal(b1-4)Glc
# Outline: as §1
# [5] = target: GalNAc(b1-3)Gal(a1-6)Gal(b1-4)Glc
# Outline: as §1
# GalNAc(b1-3)GalNAc = target: GalNAc(b1-3)GalNAc
# Outline: as §1
# GalNAc(b1-3)GlcNAc = target: GalNAc(b1-3)GlcNAc
# Outline: as §1
# GalNAc(b1-4)Gal(b1-4)Glc = target: GalNAc(b1-4)Gal(b1-4)Glc
# Outline: as §1
# GalNAc(b1-4)GlcNAc = target: GalNAc(b1-4)GlcNAc
# Outline: as §1
# [6] = target: GalNAc(b1-4)GlcNAc(b1-2)Man
# Outline: as §1
# [7] = target: GalNAc(b1-4)GlcNAc(b1-2)Man(a1-3)[GalNAc(b1-4)GlcNAc(b1-2)Man(a1-6)]Man(b1-4)GlcNAc(b1-4)GlcNAc
# Outline: as §1
# [8] = target: GalNAc(b1-4)GlcNAc(b1-3)GalNAc(b1-4)GlcNAc
# Outline: as §1
# GalNAc(b1-4)GlcNAc6S = target: GalNAc(b1-4)GlcNAc6S
# Outline: as §1
# GalNAc(b1-6)GalNAc = target: GalNAc(b1-6)GalNAc
# Outline: as §1
# GalNAc3S(b1-4)GlcNAc = target: GalNAc3S(b1-4)GlcNAc
# Outline: as §1
# GalNAc3S(b1-4)GlcNAc3S = target: GalNAc3S(b1-4)GlcNAc3S
# Outline: as §1
# [9] = target: GalNAc3S(b1-4)[Fuc(a1-3)]GlcNAc
# Outline: as §1
# GalNAc4S6S(b1-4)GlcNAc = target: GalNAc4S6S(b1-4)GlcNAc
# Outline: as §1
# GalNAc6S(b1-4)GlcNAc = target: GalNAc6S(b1-4)GlcNAc
# Outline: as §1
# Glc(a1-4)Glc = target: Glc(a1-4)Glc
# Outline: as §1
# [10] = target: Glc(a1-4)Glc(a1-4)Glc(a1-4)Glc
# Outline: as §1
# Glc(a1-6)Glc(a1-6)Glc = target: Glc(a1-6)Glc(a1-6)Glc
# Outline: as §1
# [11] = target: Glc(a1-6)Glc(a1-6)Glc(a1-6)Glc
# Outline: as §1
binder,measurement,setting,value
B1,glycan array binding signal (z-score),Gal3S4S(b1-4)GlcNAc,-0.183
same,glycan array binding signal (z-score),Gal3S6S(b1-4)GlcNAc,0.109
same,glycan array binding signal (z-score),Gal3S6S(b1-4)GlcNAc6S,0.762
same,glycan array binding signal (z-score),Gal4S(b1-4)GlcNAc,-0.607
same,glycan array binding signal (z-score),Gal4S6S(b1-4)GlcNAc,-0.28
same,glycan array binding signal (z-score),Gal6P(b1-4)GlcNAc,-0.238
same,glycan array binding signal (z-score),Gal6S(b1-3)GlcNAc,0.18
same,glycan array binding signal (z-score),Gal6S(b1-3)GlcNAc6S,0.223
same,glycan array binding signal (z-score),Gal6S(b1-4)Glc,-0.355
same,glycan array binding signal (z-score),Gal6S(b1-4)Glc6S,0.31
same,glycan array binding signal (z-score),Gal6S(b1-4)GlcNAc,-0.138
same,glycan array binding signal (z-score),Gal6S(b1-4)GlcNAc6S,0.392
same,glycan array binding signal (z-score),GalNAc(a1-3)Gal,0.179
same,glycan array binding signal (z-score),GalNAc(a1-3)GalNAc,-0.007
same,glycan array binding signal (z-score),[1],-0.175
same,glycan array binding signal (z-score),[2],-0.344
same,glycan array binding signal (z-score),GalNAc(b1-3)Gal,-0.244
same,glycan array binding signal (z-score),[3],-0.059
same,glycan array binding signal (z-score),[4],-0.013
same,glycan array binding signal (z-score),[5],-0.623
same,glycan array binding signal (z-score),GalNAc(b1-3)GalNAc,-0.129
same,glycan array binding signal (z-score),GalNAc(b1-3)GlcNAc,-0.347
same,glycan array binding signal (z-score),GalNAc(b1-4)Gal(b1-4)Glc,0.167
same,glycan array binding signal (z-score),GalNAc(b1-4)GlcNAc,0.195
same,glycan array binding signal (z-score),[6],-0.484
same,glycan array binding signal (z-score),[7],-0.25
same,glycan array binding signal (z-score),[8],-0.542
same,glycan array binding signal (z-score),GalNAc(b1-4)GlcNAc6S,-0.228
same,glycan array binding signal (z-score),GalNAc(b1-6)GalNAc,-0.281
same,glycan array binding signal (z-score),GalNAc3S(b1-4)GlcNAc,-0.031
same,glycan array binding signal (z-score),GalNAc3S(b1-4)GlcNAc3S,0.462
same,glycan array binding signal (z-score),[9],0.2
same,glycan array binding signal (z-score),GalNAc4S6S(b1-4)GlcNAc,0.452
same,glycan array binding signal (z-score),GalNAc6S(b1-4)GlcNAc,-0.249
same,glycan array binding signal (z-score),Glc(a1-4)Glc,-0.203
same,glycan array binding signal (z-score),[10],-0.019
same,glycan array binding signal (z-score),Glc(a1-6)Glc(a1-6)Glc,-0.094
same,glycan array binding signal (z-score),[11],0.259
